# Among all 310,000 compounds or so, about 18,000 (5.8%) were called active. The shares of active, inactive and inconclusive entries below differ from those in the screen. Calls follow the shape of the dose curve; as a rule, active = well fitted inhibition curve with a large enough effect; inconclusive = small, poorly fitted or top-dose-only effect, or another doubt; inactive = no such curve, though single readings can be large or run the other way. No potency is given beside an inconclusive call; the fits are too rough.
# Assay: Primary qHTS for delayed death inhibitors of the malarial parasite plastid, 48 hour incubation
# Conditions: P. falciparum luciferase growth in erythrocytes; series mostly up to 28.7 µM; activity change, negative = inhibition: at the top concentration
# How it was run: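 Here the parasites carry a stable luciferase gene and grow inside erythrocytes in Albumax-based RPMI medium with compound for one erythrocytic cycle. Activity is scored as loss of luminescent signal.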
# % is scaled to controls: 0 for no effect and ±100 for the full control effect; potency is read from the fitted curve at half-maximal effect; tags tell the direction and shape of the fitted curve.
SMILES,Potency,"activity change, negative = inhibition"
CCOc1ccccc1N(CC(=O)NCCc1ccc(OC)c(OC)c1)S(=O)(=O)c1ccccc1,"inconclusive [inhibitor, partial curve]",
CN(CC(=O)Nc1ccc(N2CCOCC2)cc1)C(=O)CCc1ccccc1Cl,"inconclusive [inhibitor, single point]",
Cc1ccc(C(=O)N/C(=C\c2ccc(-c3ccccc3[N+](=O)[O-])o2)C(=O)NCCCN(C)C)cc1,active: 2.62 µM,
O=C(Cn1ccc2cc(S(=O)(=O)N3CCCCC3)ccc21)NCc1ccccc1F,"inconclusive [inhibitor, single point]",
CC(=O)/C(=N\Nc1ccccc1)Sc1nnc(-c2ccccc2)n1-c1ccccc1,,inactive: -27.1%
Cn1c(SCc2cc(=O)[nH]c3ccccc23)nnc1-c1ccc(Br)cc1,"inconclusive [inhibitor, partial curve, poor fit]",
CCOCCCn1c(=NC(=O)c2cccs2)c(C#N)cc2c(=O)n3cccc(C)c3nc21,active: 1.85 µM,
COc1ccccc1OCc1ccc(C(=O)NC2CCCCC2)o1,,inactive: 10.1%
O=C(CCC1CCCN(C(=O)c2ccc3[nH]ccc3c2)C1)N1CCN(c2ccccn2)CC1 (configuration not stated),"inconclusive [inhibitor, partial curve]",
O=c1cc(-c2cccc([N+](=O)[O-])c2)[nH][nH]1,,inactive: -19.9%
COC1C(C)=C(C)C(=O)N1Cc1ccc(F)cc1 (configuration not stated),"inconclusive [inhibitor, single point]",
Cc1cccc(N2C(N)=NC(N)=NC23CCCCC3)c1,active: 2.08 µM,
Cc1ccc(/C=C2\SC(=S)N(C3CCS(=O)(=O)C3)C2=O)o1 (configuration not stated),,inactive: -28.8%
O=C(c1cnn(-c2cccc(F)c2)c1)c1ccccc1O,,inactive: 68.6%
FC(F)(F)c1cc(Oc2ccc(Cl)cc2)nc(-c2ccccn2)n1,"inconclusive [inhibitor, full curve, poor fit]",
COc1cccc(/C=C2\SC(=S)N(CCC(=O)N3CCCCC3CCO)C2=O)c1 (configuration not stated),"inconclusive [inhibitor, partial curve]",
CC(C)c1ccc(NC(=O)CCN2C(=O)[C@@H]3Cc4ccccc4CN3C2=O)cc1,"inconclusive [inhibitor, partial curve]",
CC(=O)C(Cc1ccc(Cl)nc1)Cc1ccc(Cl)nc1,,inactive: -0.782%
O=C(/C=C\c1ccccc1)Nc1nccs1,,inactive: 96.8%
Cc1cccc(C)c1NC(=S)N(Cc1ccccc1)Cc1cccs1,"inconclusive [inhibitor, single point]",
Cc1cc(N2CCN(c3nc4ccccc4s3)CC2)n2ncnc2n1,"inconclusive [inhibitor, partial curve, poor fit]",
C=CCOc1ccc(C2/C(=C(\O)c3ccc(F)cc3)C(=O)C(=O)N2CCCN(C)C)cc1 (configuration not stated),"inconclusive [inhibitor, single point]",
Cc1cccc(/C=N/NC(=O)Cc2ccc(Cl)cc2)c1O,"inconclusive [inhibitor, single point]",
O=C(Nc1ccccc1)C(=O)Nc1ccc2c(c1)N(C(=O)C1CC1)CCC2,,inactive: -30.5%

SMILES,Potency,"activity change, negative = inhibition"
Clc1ccccc1CN1CCC(Cc2ccccc2)CC1,,inactive: 8.15%
CC(C)(C)c1ccc(-c2ncccc2O)cc1,"inconclusive [inhibitor, partial curve]",
O=C1c2ccccc2C(O)(c2ccccc2)N1CCc1ccccc1 (configuration not stated),"inconclusive [inhibitor, single point]",
COC(=O)C1=NN(c2ccc(C)cc2)C2C(=O)N(c3ccccc3OC)C(=O)C12 (configuration not stated),"inconclusive [inhibitor, single point]",
Fc1ccc(CNC(=S)NCc2cccc(Cl)c2)cc1,"inconclusive [inhibitor, single point]",
COc1ccc(NC(=O)c2cccc(-n3c(C)ccc3C)c2)c(OC)c1,"inconclusive [inhibitor, partial curve]",
COc1ccccc1CNC(=O)CC(C)C,"inconclusive [inhibitor, single point]",
CCOc1ccc(-c2c(C)n(-c3ccc(OCC)cc3)c3[n+]2CCCCC3)cc1,active: 0.415 µM,
S=c1nc(C2CCCCC2)[nH][nH]1,,inactive: 6.16%
Cc1ccc(S(=O)(=O)Nc2cccc(C(=O)NCC(c3ccccc3)N(C)C)c2)cc1F (configuration not stated),"inconclusive [inhibitor, single point]",
Cc1c(C(=O)C(=O)NCCC2=CCCCC2)c2ccccc2n1C,"inconclusive [inhibitor, partial curve, poor fit]",
CC(OC(=O)Cn1[nH]c(=O)c2ccccc2c1=O)C(=O)c1ccccc1 (configuration not stated),,inactive: -0.833%
Cc1ccc(S(=O)(=O)c2nc(S(=O)(=O)c3ccc(C)cc3)c(N3CCN(CCO)CC3)s2)cc1,active: 5.22 µM,
CC(=O)c1ccc(NC(=O)Nc2ccncc2)cc1,"inconclusive [inhibitor, single point]",
Cc1ccc(Nc2nc(CSc3nnc(-c4ccncc4)n3C)cs2)cc1,,inactive: 50.2%
C=CCN1C(=O)C(O)(CC(=O)c2ccc(OC)cc2OC)c2cc(Br)ccc21 (configuration not stated),active: 11.7 µM,
COc1cccc(C(C)NC(=S)NCc2ccc(F)cc2)c1 (configuration not stated),"inconclusive [inhibitor, single point]",
Cc1ccc(NC(=O)COC(=O)C(NS(=O)(=O)c2ccc(Cl)cc2)C(C)O)cc1C (configuration not stated),"inconclusive [inhibitor, single point]",
CCOCCCNC(=O)C1CCN(c2cc(C)nc3c(-c4ccc(OC)c(OC)c4)c(C)nn23)CC1,active: 4.15 µM,
CCOc1ccc(NC(=O)c2c(NC(=O)CNCCN3CCOCC3)sc3c2CCC3)cc1,active: 0.329 µM,
CC(=O)Nc1ccc(NC(=O)c2ccc(-c3ccccc3Cl)o2)cc1,,inactive: 41.9%
Cc1cc(C)c(S(=O)(=O)N2CCN(C(=O)CCOc3ccccc3C)CC2)c(C)c1,active: 13.1 µM,
CCC(=O)N1CCc2cc(S(=O)(=O)CCC(=O)N3CCN(c4ccc(Cl)cc4)CC3)ccc21,"inconclusive [inhibitor, partial curve, poor fit]",
